Assay results published in PubChem BioAssay AID1030 (National Center for Advancing Translational Sciences (NCATS), 2008).
The campaign covered roughly 220,000 compounds. About 16,000 (7.3%) were called active. Inconclusive results, whose numbers are uncertain, are shown with a selection of clear calls. The call rests on the fitted dose curve; in most records, active means well fitted inhibition curve with a large enough effect (not every such curve was filed as active); inconclusive means small, poorly fitted or top-dose-only effect, or another doubt; inactive means no such curve, though single readings can be large or run the other way. Potencies beside an inconclusive call are fits to weak or partial responses and may not hold up.

Molecular target: Aldehyde dehydrogenase 1A1 (Homo sapiens) (UniProt P00352)
UniProt P00352, sequence (P00352 whole entry, looked up): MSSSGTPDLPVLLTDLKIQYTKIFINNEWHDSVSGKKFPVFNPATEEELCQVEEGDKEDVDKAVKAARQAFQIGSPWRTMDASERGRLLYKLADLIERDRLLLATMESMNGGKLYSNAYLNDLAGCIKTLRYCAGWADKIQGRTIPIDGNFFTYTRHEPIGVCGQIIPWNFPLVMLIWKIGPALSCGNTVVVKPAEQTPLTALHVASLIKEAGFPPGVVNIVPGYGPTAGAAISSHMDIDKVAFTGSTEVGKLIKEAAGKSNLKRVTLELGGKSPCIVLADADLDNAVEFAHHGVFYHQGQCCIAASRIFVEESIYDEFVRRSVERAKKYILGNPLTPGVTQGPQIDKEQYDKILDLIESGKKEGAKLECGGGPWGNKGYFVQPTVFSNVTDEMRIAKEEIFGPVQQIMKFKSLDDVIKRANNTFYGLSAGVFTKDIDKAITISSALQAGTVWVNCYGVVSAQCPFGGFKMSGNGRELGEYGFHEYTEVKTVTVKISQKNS
Assay: qHTS Assay for Inhibitors of Aldehyde Dehydrogenase 1 (ALDH1A1);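 on activity, negative = inhibition: plate controls were no enzyme wells and a reference inhibitor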
Details: Purified ALDH1A1, NADH fluorescence, propionaldehyde substrate; series mostly up to 75.3 µM; activity, negative = inhibition: at the top concentration
Potency means the concentration at half of the fitted maximal effect; tags describe the fitted curve by direction and shape.

Potency, active:
O=C1C=C[C@@H](O)[C@H]2[C@@H]3C(=O)N(Cc4ccccc4)C(=O)[C@@H]3CC[C@H]12 3.16 µM, C#CCCCCCCCCCCCC(O)CC(O)COC(C)=O (stereo not given) 14.1 µM, CCOC(=O)C1CCCN(C2CC(=O)N(c3cccc(C(F)(F)F)c3)C2=O)C1 (stereo not given) 8.91 µM, O=C(CCl)Nc1cc(-c2ccccc2)nn1-c1ccccc1 1.26 µM, CN[C@@H]1[C@H](O[C@@H]2O[C@H](C)[C@@](O)(CO)[C@H]2O[C@H]2[C@H](O)[C@H](O)[C@H](N=C(N)N)[C@@H](O)[C@@H]2N=C(N)N)O[C@@H](CO)[C@H](O)[C@H]1O 10 µM, CN(C)C(=S)Nc1ccc2c(c1)OCO2 10 µM, Cc1cc2c(=O)n(Cc3ccco3)c(SCC(=O)NCc3ccco3)nc2s1 7.94 µM, CS(=O)c1nc(-c2ccc(Br)cc2)cc(-c2ccccc2)c1C#N (stereo not given) 12.6 µM, O=C(NCCO)C(O)C(O)C(=O)NCCO (stereo not given) 17.8 µM, S=C(NCc1ccco1)Nc1ccc(Cl)c(Cl)c1 25.1 µM, COc1cc(OC)cc(C(=O)NC(=S)NCCc2ccccc2)c1 1.12 µM

Potency, inconclusive:
COc1ccc(N2C(N)=C(C#N)C(c3cccnc3)C3=C2CC(C)(C)CC3=O)cc1 (stereo not given) 35.5 µM [inhibitor, single point], CC(C)c1cc(C(=O)N/N=C/c2cccnc2)cs1 25.1 µM [inhibitor, single point], CCN(CC)c1nc(-c2ccccc2)ncc1S(=O)(=O)c1ccc(C)cc1 14.1 µM [inhibitor, partial curve], CCOC(=O)C1CCN(C(=O)/C=C/c2cc(OC)c(OC)c(OC)c2)CC1 22.4 µM [inhibitor, single point], Cc1ccc(NC(=O)c2ccc(NCCN)c([N+](=O)[O-])c2)cc1 28.2 µM [inhibitor, single point], COc1ccc(CNC(=O)COC(=O)CCc2c[nH]c3ccccc23)cc1 39.8 µM [inhibitor, single point], Cc1ccc2cc3c(NC(=O)c4ccco4)nn(CC(C)C)c3nc2c1 22.4 µM [inhibitor, partial curve], CCOC(=O)C1C(=O)NC(c2ccccc2)=NC1c1ccc(Cl)cc1 (stereo not given) 39.8 µM [inhibitor, single point], Cc1ccc(S(=O)(=O)N(C)C)cc1NC(=O)c1ccncc1 44.7 µM [inhibitor, single point], CCN(CC)c1ccc(NC(=O)C2CC(=O)N(Cc3ccccc3)C2)cc1 (stereo not given) 39.8 µM [inhibitor, single point], Cc1nc2cc(NC(=O)NCCC3=CCCCC3)ccc2o1 35.5 µM [inhibitor, single point], CCN(CC)c1ccc(C2C(C(=O)OC)=C(C)NC(C)=C2C(=O)OC)cc1 35.5 µM [inhibitor, partial curve], N#Cc1cc2c(nc1SCc1ccccc1)CCCC2=O 18.9 µM [inhibitor, single point], O=C(COC(=O)Cc1ccc(S(=O)(=O)N2CCOCC2)s1)NCCc1ccccc1 20 µM [inhibitor, single point], CCCSc1nnc(-c2ccccc2N)c(=O)[nH]1 39.8 µM [inhibitor, single point], Cc1ccc(S(=O)(=O)Nc2ccccc2CNc2c(C)n(C)n(-c3ccccc3)c2=O)cc1 25.1 µM [inhibitor, partial curve], O=c1c(-c2ccc(Cl)cc2)nc2cnc(N3CCNCC3)nc2n1Cc1ccc(F)cc1 14.1 µM [inhibitor, partial curve], CCOc1ccccc1CNC(=O)CCN1C(=O)COc2ccccc21 39.8 µM [inhibitor, single point], CN(CCc1nc2ccc(Cl)cc2[nH]1)Cc1nc(CC2CC2)no1 39.8 µM [inhibitor, single point], Cc1cccc(-n2c(C)cc(/C=N/n3cnnc3)c2C)c1 14.1 µM [inhibitor, partial curve], CCc1c2c(nc3ccc(OC)cc13)COC2 31.6 µM [inhibitor, partial curve], CCc1ccc2oc(-c3cc(N=Cc4cccc(OC)c4O)ccc3O)nc2c1 14.1 µM [inhibitor, partial curve], Cc1cnc(NC(=O)c2cc3c(C)nn(-c4ccccc4)c3s2)s1 31.6 µM [inhibitor, partial curve], Cc1ccc(C)n1CCN1CCN(S(=O)(=O)c2ccc(F)cc2F)CC1 37.7 µM [inhibitor, single point], COc1ccc(CCN(C)c2ccc(S(=O)(=O)N3CCCC3)cc2[N+](=O)[O-])cc1OC 22.4 µM [inhibitor, partial curve], O=C(CCSCc1ccccc1Cl)N1CCN(c2ccccn2)CC1 39.8 µM [inhibitor, single point], O=C(CSc1nc2ccccc2o1)Nc1ccc(N2CCOCC2)cc1 39.8 µM [inhibitor, single point], CC1=C(C(=O)OCc2ccccc2)C(c2ccoc2)C(C#N)=C(N)O1 (stereo not given) 20 µM [inhibitor, partial curve], O=C(CSc1nc2ccccc2s1)N1c2ccccc2Sc2ccc(Cl)cc21 35.5 µM [inhibitor, single point], CC1(C)CC(=O)C2=C(C1)Nc1ccccc1N(C(=O)C1CC1)C2c1ccco1 (stereo not given) 39.8 µM [inhibitor, single point], O=C(Nc1nc(-c2cccs2)cs1)c1ccc(S(=O)(=O)N2CCCC2)cc1 17.8 µM [inhibitor, partial curve], COc1ccc2[nH]c(=O)c(CN(C)C(=O)C3CCCCC3)cc2c1 22.4 µM [inhibitor, partial curve], O=C(c1ccc2ccccc2n1)N1CCN(c2ccccc2O)CC1 39.8 µM [inhibitor, single point], CN1CCN(c2ccc(NC(=O)c3sc4ccccc4c3Cl)cc2)CC1 39.8 µM [inhibitor, single point], O=C(Nc1ccccc1)n1ccc(-c2ccc(-n3ccnc3)cc2)n1 44.7 µM [inhibitor, single point], COc1ccc(-c2cc(=O)c3c(O)cc(O[C@H]4OC(COC5OC(C)C(O)C(O)[C@H]5O)C(O)C(O)C4O)cc3o2)cc1O (stereo not given in full) 35.5 µM [inhibitor, partial curve, poor fit], CCN(CC)S(=O)(=O)c1ccc(C(=O)N(c2ccc(C)cc2)C2C=CS(=O)(=O)C2)cc1 (stereo not given) 4.47 µM [inhibitor, full curve, poor fit], CCOC(=O)N1CC=C2C(C#N)=C(N)C(C#N)(C#N)[C@H](c3ccc(OC(C)C)c(OCC)c3)[C@H]2C1 39.8 µM [inhibitor, single point], O=C(O)CC12CC3CC(C1)CC(n1ncc(NCc4ccc(F)cc4)c(Cl)c1=O)(C3)C2 25.1 µM [inhibitor, single point], Cc1cc(/C=C2\SC(N)=NC2=O)c(C)n1-c1ccccc1 31.6 µM [inhibitor, single point], Cc1ccc2nc(Cl)nc(-c3ccccc3)c2c1 39.8 µM [inhibitor, single point], O=C1CC(c2cccs2)Sc2nc3ccccc3n21 (stereo not given) 39.8 µM [inhibitor, single point]

activity, negative = inhibition, inactive:
NC(=O)Nc1nc2ccccc2[nH]1 3.62%, CC(C)NC(=O)NC(=O)COC(=O)c1ccc(NC(=O)CC#N)cc1 6.29%, c1ccc2c[n+](CCCC[n+]3ccc4ccccc4c3)ccc2c1 -3.43% [at 13.5 µM], COc1cccc(/C=N/NC(=S)Nc2cccc(C(=O)O)c2)c1O -3.2%, Cc1cccc(S(=O)(=O)c2c(C)cc(C)nc2Cl)c1 4.83%, CC1CC(C)CN(S(=O)(=O)c2ccc(NC(=S)NC(=O)c3ccccc3)cc2)C1 (stereo not given) -3.9%, COc1cccc(C2N(c3cccc(Cl)c3)C(=O)C3CCCN32)c1 (stereo not given) 8.35%, CCN1C(=O)[C@H]2[C@H]3[C@H](O)[C@H](O)C/C(=N/OC)[C@@H]3CC[C@@H]2C1=O -15.4% [at 13.5 µM], O=C1/C(=C\c2cccs2)SC(=S)N1C1CCS(=O)(=O)C1 (stereo not given) 7.61%, CCCCc1ccc(S(=O)(=O)NC2CCS(=O)(=O)C2)cc1 (stereo not given) 4.69%, Nc1nc(N)nc(-c2ccc(Cl)cc2)n1 13.5%, Cc1ccccc1Nc1ncnc2c1cnn2-c1ccccc1 -4.38%, O=C(c1ccc(S(=O)(=O)Nc2ccc(F)cc2)cc1)N1CCN(c2ccccn2)CC1 2.18%, O=C(c1ccc2c(c1)OCO2)N1CCCCC1 -6.07%, COc1ccc(Br)c(OC)c1C(=O)NC(=O)Nc1nc(C)cc(C)n1 -2.98%, COc1ccc(CC(=O)N2N=C(C)CC2(O)c2cccnc2)cc1OC (stereo not given) -5.46%, Cc1c(C(=O)N2CCc3ccccc3C2)oc2ccc(S(=O)(=O)N3CC(C)CC(C)C3)cc12 (stereo not given) 1.23%
